Measured values taken from PubChem BioAssay (Tox21).
Several values for one entry are separate records, joined by “and”; a condition that tells them apart may be missing. Equal entries are not always repeated. Inconclusive means that the source gave no clear call. Such entries were picked first, then a sample of the others. No potency is given beside an inconclusive call; the fits are too rough. Activity calls are given as the source filed them. Calls follow the shape of the dose curve; as a rule, active = well fitted curve in the direction sought with a large enough effect in the repeat runs; inconclusive = weak or mixed curves; inactive = no such curve, though single readings can be large; an effect the other way counts as inactive or inconclusive.

experiment: qHTS RealTime-Glo MT Cell Viability Assay in HEK293 cells - 40 hour (AID 1224874); conditions: RealTime-Glo luminescence; max response: stronger effect = lower value; also: nearly all actives have a fitted effect of over 50% in size
Procedure, shortened: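 HEK293 + NanoLuc + prosubstrate, 600 cells/well; 5 h, 37 C/5% CO2; compound 23 nL in DMSO by pintool; 37 C; luminescence read at 0, 8, 16, 24, 32 and 40 h time points.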
% is scaled to controls: 0 for no effect and ±100 for the full control effect; potency is read from the fitted curve at half-maximal effect; tags tell the direction and shape of the fitted curve.

SMILES	max response	Potency
N#Cc1ccccc1	inactive: 6.77% and inactive: 3.17%	
C[N+]1(CC2COC(c3ccccc3)(C3CCCCC3)O2)CCCCC1 (stereo not drawn)		inconclusive [cytotoxic, partial curve]
Cc1ccccc1C(=O)N1CC/C(=N\OS(=O)(=O)O)c2ccc(Cl)cc21	inactive: -2.43%	
O=C1CCCC1	inactive: -0.988% and inactive: 5.09%	
Cc1cc(C)c(C)c(C)c1	inactive: -10%	
OCCCC1CCCCC1	inactive: 11.3%	
Cc1ccccc1C(=O)Nc1ccc(C(=O)N2CCCC(N(C)C)c3ccccc32)cc1 (stereo not drawn)		inconclusive [cytotoxic, full curve]
CN1CCC[C@@H]1Cc1c[nH]c2ccc(CCS(=O)(=O)c3ccccc3)cc12	inactive: 3.35%	
Cc1cn([C@H]2C=C[C@@H](CO)O2)c(=O)[nH]c1=O		inconclusive [rising, single point]
Cc1ccncc1	inactive: 1.94% and inactive: -1.5%	
CN1CCC[C@@H]1c1cccnc1	inactive: 7.25%	
O=C(O)CCCC[P+](c1ccccc1)(c1ccccc1)c1ccccc1	inactive: -10.4%	
COc1ccc([C@@H]2Sc3ccccc3NC(=O)[C@@H]2O)cc1		inconclusive [cytotoxic, single point]
NS(=O)(=O)c1ccc(C(=O)O)cc1	inactive: -0.921%	
O=C(NCC1CN(c2ccc(N3CCOCC3=O)cc2)C(=O)O1)c1ccc(Cl)s1 (stereo not drawn)	inactive: -20.3%	
CCN(CC)CC(=O)Nc1c(C)cccc1C		inconclusive [cytotoxic, partial curve]

SMILES	max response	Potency
CC(C)=CCC/C(C)=C/C(=O)O	inactive: 0.0826%	
O=[N+]([O-])c1ccc(O)cc1C(F)(F)F		inconclusive [cytotoxic, full curve]
COC(=O)/C=C\C(=O)OC	inactive: 12.2% and inactive: 10.6%	
C[C@@H]1O[C@@H](O[C@@H]2[C@@H](O)[C@H](OCCc3ccc(O)c(O)c3)O[C@H](CO[C@@H]3O[C@H](CO)[C@@H](O)[C@H](O)[C@H]3O)[C@H]2OC(=O)/C=C/c2ccc(O)c(O)c2)[C@H](O)[C@H](O)[C@H]1O	inactive: -18.6%	
O=S(=O)(O)CC(O)CCl (stereo not drawn)	inactive: 5.44%	
CC(C)O.CC(C)O.CCOC(=O)/C=C(\C)O.CCOC(=O)/C=C(\C)O.[Ti]	inactive: -0.8%	
C[C@@H]1CCC[C@H](C)N1CCCC(O)(c1ccccc1)c1ccccn1 (stereo partly drawn)	inactive: 4.53%	
CCCCCCCCCCCCOCCOS(=O)(=O)O		inconclusive [cytotoxic, single point]
O=C(N[C@@H](Cc1ccccc1)[C@@H](O)C(=O)N1C[C@@H](O)[C@@H](O)C1)c1cc2cc(Cl)ccc2[nH]1		inconclusive [cytotoxic, partial curve]
S=C(S)NCCNC(=S)S	inactive: -4.71%	
COc1cc2c(cc1OC)-c1cc(=Nc3c(C)cc(C)cc3C)n(C)c(=O)n1CC2		inconclusive [cytotoxic, partial curve]
CC(COC(C)(C)C)OCCCO (stereo not drawn)		inconclusive [cytotoxic, single point]
CCCOc1ccccc1-c1nc2n[nH]nc2c(=O)[nH]1		inconclusive [cytotoxic, partial curve, poor fit]
CC1(C)[C@@H]2CC[C@]3(C2)[C@@H]1C(=O)CCC3(C)C	inactive: 3.71%	
CC(=O)c1ccc2c(c1)N(CCCN(C)C)c1ccccc1S2		inconclusive [cytotoxic, partial curve, poor fit]

experiment: A CellTox Green Cytotoxicity Assay to monitor cytotoxicity in HEK293 cells - 24 hour (AID 1224875); conditions: CellTox Green fluorescence; series mostly up to 76.8 µM; also: nearly all actives have a fitted effect of over 45% in size
Procedure, shortened: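 Tox21 screen in HEK293: membrane-impermeant cyanine dye fluoresces on binding dead-cell DNA; compound pinned 5 h post-seeding, plates held at 37 C, signal read repeatedly through 40 h.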

SMILES	Potency
C[C@@H]1C[C@H]2[C@@H]3CCC4=CC(=O)C=C[C@]4(C)[C@@]3(F)[C@@H](O)C[C@]2(C)[C@@]1(O)C(=O)COC(=O)c1ccncc1	inactive
CC1CCc2c(N3CCC(O)CC3)c(F)cc3c(=O)c(C(=O)O)cn1c23 (stereo not drawn)	inactive
CC(C)S	inactive
CC(COc1ccccc1)NN (stereo not drawn)	inactive
CC(C)COC(=O)c1ccccc1	inactive
CCCCCCCCCCCCOCCOS(=O)(=O)O	active: 24.5 µM
CCOC(=O)c1cnc2c(cnn2CC)c1NN=C(C)C	inconclusive [activator, single point]
COc1ccc(NS(=O)(=O)c2ccc(N)cc2)nn1	inactive

experiment: A CellTox Green Cytotoxicity Assay to monitor cytotoxicity in HepG2 cells - 16 hour (AID 1224876); conditions: CellTox Green fluorescence; series mostly up to 76.8 µM; also: nearly all actives have a fitted effect of over 45% in size
Procedure, shortened: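 Measurements at 0, 8, 16, 24, 32 and 40 h of treatment captured CellTox Green fluorescence in HepG2 cells that had been co-plated with reagent and preincubated 5 h at 37 C/5% CO2.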

SMILES	Potency
N#Cc1ccccc1	inconclusive [activator, single point]
Cc1ccccc1C(=O)N1CC/C(=N\OS(=O)(=O)O)c2ccc(Cl)cc21	inconclusive [activator, single point]
Cc1cn([C@H]2C=C[C@@H](CO)O2)c(=O)[nH]c1=O	inconclusive [activator, partial curve]
CN1CCC[C@@H]1c1cccnc1	inconclusive [activator, single point]
O=C(O)CCCC[P+](c1ccccc1)(c1ccccc1)c1ccccc1	inconclusive [activator, single point]
O=C(NCC1CN(c2ccc(N3CCOCC3=O)cc2)C(=O)O1)c1ccc(Cl)s1 (stereo not drawn)	inconclusive [activator, single point]
CCN(CC)CC(=O)Nc1c(C)cccc1C	inactive
O=C(N[C@@H](Cc1ccccc1)[C@@H](O)C(=O)N1C[C@@H](O)[C@@H](O)C1)c1cc2cc(Cl)ccc2[nH]1	inconclusive [activator, full curve, poor fit]
CC(COC(C)(C)C)OCCCO (stereo not drawn)	inactive
